The whole screen tested about 390,000 compounds, of which about 17,000 (4.4%) were called active. The shares of active, inactive and inconclusive entries below differ from those in the screen. Calls come from the whole dose curve; as a rule, active = well fitted inhibition curve with a large enough effect; inconclusive = small, poorly fitted or top-dose-only effect; inactive = no such curve, though single readings can be large or run the other way. Where the call is inconclusive, the potency comes from a doubtful curve fit.
molecular target: Lysine-specific demethylase 4A (Homo sapiens) (UniProt O75164); assay: qHTS Assay for Inhibitors of JMJD2A-Tudor Domain; conditions: AlphaScreen JMJD2A-Tudor / H3K4me3 peptide binding; series mostly up to 114 µM; note: nearly all actives have a fitted effect of over 50% in size
Potency is the fitted concentration of half-maximal effect; tags give direction and shape of the fitted curve.

Chain of UniProt O75164 (O75164 whole entry, looked up, the tested form may be a part): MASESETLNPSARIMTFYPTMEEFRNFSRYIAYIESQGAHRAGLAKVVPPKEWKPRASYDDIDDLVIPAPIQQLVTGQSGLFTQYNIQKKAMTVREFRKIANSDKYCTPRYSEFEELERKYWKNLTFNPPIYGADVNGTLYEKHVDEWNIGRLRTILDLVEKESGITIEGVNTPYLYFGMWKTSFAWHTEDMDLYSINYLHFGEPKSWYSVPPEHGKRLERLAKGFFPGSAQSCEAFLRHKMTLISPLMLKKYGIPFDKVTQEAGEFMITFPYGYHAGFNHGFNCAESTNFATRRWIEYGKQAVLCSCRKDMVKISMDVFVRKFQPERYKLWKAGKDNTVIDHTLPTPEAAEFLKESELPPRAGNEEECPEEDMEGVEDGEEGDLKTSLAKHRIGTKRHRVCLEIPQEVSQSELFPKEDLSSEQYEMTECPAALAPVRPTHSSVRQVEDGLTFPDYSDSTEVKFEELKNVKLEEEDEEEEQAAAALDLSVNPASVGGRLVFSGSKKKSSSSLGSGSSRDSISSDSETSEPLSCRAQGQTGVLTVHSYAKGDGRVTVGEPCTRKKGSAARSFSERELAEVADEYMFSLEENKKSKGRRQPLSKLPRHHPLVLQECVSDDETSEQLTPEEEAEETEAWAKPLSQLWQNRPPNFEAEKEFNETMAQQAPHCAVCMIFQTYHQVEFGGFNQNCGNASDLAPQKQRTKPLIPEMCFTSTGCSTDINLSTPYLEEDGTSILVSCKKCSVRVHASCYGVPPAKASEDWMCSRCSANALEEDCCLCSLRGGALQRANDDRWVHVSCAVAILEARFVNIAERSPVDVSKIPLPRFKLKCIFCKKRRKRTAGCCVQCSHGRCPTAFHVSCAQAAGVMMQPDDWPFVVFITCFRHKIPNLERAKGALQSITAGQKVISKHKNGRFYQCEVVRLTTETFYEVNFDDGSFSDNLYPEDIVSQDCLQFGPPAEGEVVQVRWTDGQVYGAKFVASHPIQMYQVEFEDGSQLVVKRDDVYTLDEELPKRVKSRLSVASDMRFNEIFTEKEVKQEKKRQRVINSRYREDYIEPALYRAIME

Compound	Potency
CC(C(=O)N1CCCCC1)N(C)CC(=O)Nc1ccc(Cl)cc1 (stereo not drawn)	inconclusive: 11.2 µM [inhibitor, full curve]
O=C(CN1CCN(Cc2ccc(F)cc2)CC1)NCCc1ccccc1	inactive
Cc1cccc(N(Cc2cc3ccccc3[nH]c2=O)C(=O)c2ccco2)c1C	inactive
Cc1occc1-c1nnc(SCC(=O)c2ccc(Cl)cc2)n1C	active: 70.8 µM
O=C(NNS(=O)(=O)c1ccc(F)cc1)c1cccc(O)c1	active: 25.1 µM
O=C(CN1C(=O)NC2(CCCC2)C1=O)N1CCN(c2ccccc2O)CC1	inactive
O=[N+]([O-])c1ccc(Cl)cc1N/N=C/c1ccncc1	inconclusive: 44.7 µM [inhibitor, partial curve]
Cc1cccc(-n2ncc(C(=O)NCc3ccco3)c2C2CCN(C(=O)OC(C)(C)C)CC2)c1	inconclusive: 44.7 µM [inhibitor, full curve, poor fit]
Cc1ccc2c(c1)cc(C)c1nnc(SCC(=O)NCc3ccco3)n12	inconclusive: 44.7 µM [inhibitor, partial curve]
Cc1ccc(N2CCN(C(=O)c3c(C)oc4nc(C)nc(N5CCCC5)c34)CC2)c(C)c1	inactive
CC1(C)CC(N2CCCC2)=CC(=[N+]2CCCC2)C1	inactive
CCN1C(=O)[C@@H]2[C@H](C1=O)[C@@H]1C(=O)Nc3ccccc3C(=O)N1[C@@H]2c1ccc(OC)cc1	inactive
Cc1ccccc1C(=O)NC1CCN(C(=O)N(c2ccccc2)c2ccccc2)CC1	inactive
CC[C@]12c3[nH]c4ccc(Cl)cc4c3CCN1C(=O)[C@@H](CC(=O)NCC13CC4CC(CC(C4)C1)C3)C[C@@H]2C(=O)N1CCN(C(=O)C2CC2)CC1	inconclusive: 63.1 µM [inhibitor, partial curve, poor fit]
O=[N+]([O-])c1ccccc1Sc1nccn1Cc1ccccc1	inconclusive: 63.1 µM [inhibitor, partial curve]
Cc1cccc(NC(=O)CN2CCC(NC(=O)C3CCCCC3)CC2)c1C	inactive
Nc1ccc(-c2ccc(N)c(C(=O)O)c2)cc1C(=O)O	inactive
COc1cccc(C2c3c(ncn(CCCN4CCOCC4)c3=N)Oc3ccc4ccccc4c32)c1 (stereo not drawn)	active: 28.2 µM
Cc1ccc(-n2nnnc2-c2cnn(-c3cccc(F)c3)c2C(F)(F)F)cc1	inconclusive: 100 µM [inhibitor, single point]
COc1ccccc1N1CCNC(C)C1=O (stereo not drawn)	inconclusive: 15.8 µM [inhibitor, partial curve, poor fit]
CCOC(=O)N1CCN(S(=O)(=O)c2ccc(C(=O)N(CCN(C)C)c3nc4c(C)cccc4s3)cc2)CC1	inconclusive: 44.7 µM [inhibitor, partial curve]
Cc1cccc(N2CCN(C(=O)C3CCN(S(=O)(=O)c4cccc5nsnc45)CC3)CC2C)c1 (stereo not drawn)	inconclusive: 56.2 µM [inhibitor, partial curve]
CCN(CC)S(=O)(=O)c1ccc(NC(=O)CCN2C(=O)C3CC=CCC3C2=O)cc1 (stereo not drawn)	inconclusive: 12.6 µM [inhibitor, partial curve, poor fit]

Compound	Potency
CC(C)CCOP(=O)(c1ccc(N(C)C)cc1)C(Nc1ccccc1)c1ccc(N(C)C)cc1 (stereo not drawn)	active: 44.7 µM
COc1ccc(/C=N/NC(=O)CCCC(=O)NC2CCCCC2)cc1	inconclusive: 0.631 µM [inhibitor, full curve, poor fit]
Cc1cc(Cl)cc(Cl)c1OCCCCN(C)C	active: 44.7 µM
NNC(=O)c1ccc(COc2ccc3ccccc3c2)o1	inconclusive: 79.4 µM [inhibitor, partial curve]
CCOC(=O)CNC(=O)C1CCN(S(=O)(=O)c2ccc(-c3nn[nH]n3)cc2)CC1	inactive
CCc1ccc(NC(=O)CSc2nc(NS(=O)(=O)c3ccccc3)cc(=O)[nH]2)cc1	inactive
COc1cccc(CN2CCc3nc(N4CCN(C)CC4)ncc3C2)c1	inconclusive: 79.4 µM [inhibitor, single point]
COc1ccc(NC(=O)N(C)C[C@H]2Oc3c(NC(=O)c4nc5ccccc5s4)cccc3C(=O)N([C@@H](C)CO)C[C@H]2C)cc1	inconclusive: 56.2 µM [inhibitor, partial curve]
O=C(Cn1cc(C(F)(F)F)ccc1=O)N1CCc2ccccc21	inactive
O=S(=O)(Nc1ccccc1)c1cccc2nsnc12	inconclusive: 44.7 µM [inhibitor, partial curve]
CCOc1ccc(-c2ccc(/C=C3/C(=N)N4C=CSC4=NC3=O)o2)c([N+](=O)[O-])c1	inconclusive: 50.1 µM [inhibitor, partial curve]
O=C(O)CCN1C(=O)/C(=C\c2ccc(-c3nc4ccccc4s3)o2)SC1=S	active: 3.98 µM
N#Cc1c(N2CCCCC2)nc(N)c2c(N)nc(SCC(=O)O)cc12	active: 50.1 µM
Cc1ccccc1C(=O)c1cccn1CC(=O)NCCN1CCN(c2cccc(C)c2C)CC1	active: 50.1 µM
Cc1ccc(/C(C#N)=C\c2ccc(N3CCOCC3)o2)cc1	active: 56.2 µM
Cc1ccccc1C(=O)NC1CCN(C(=O)NCc2ccccc2)CC1	inconclusive: 89.1 µM [inhibitor, single point]
CCOc1cc(/C=C2/NC(=S)NC2=O)ccc1OCc1ccc([N+](=O)[O-])cc1	inconclusive: 50.1 µM [inhibitor, partial curve, poor fit]
O=C(Nc1ccc2oc(-c3cc(Br)ccc3Cl)nc2c1)c1ccc2ccccc2c1	inconclusive: 39.8 µM [inhibitor, partial curve]
CN(C)C(=O)CSc1ncccc1-c1nc2ccccc2[nH]1	inactive
C/C(=N/NC(=O)CNc1ccc(C)cc1)c1ccc(Cl)cc1	inconclusive: 50.1 µM [inhibitor, partial curve]
C/C(=N\NC(=S)NCc1ccccc1)c1ccc(Cl)s1	inconclusive: 44.7 µM [inhibitor, partial curve]
Cc1ccc(C(=O)c2c3ccc([N+](=O)[O-])cc3[n+]([O-])n2CCCN)cc1	inconclusive: 56.2 µM [inhibitor, partial curve]
CCOc1ccc(-c2nnn(CC(=O)NCCc3c[nH]c4ccccc34)n2)cc1	inactive

Compound	Potency
CC(C)(C)c1ccc(S(=O)(=O)c2cnc(SCC(=O)Nc3ccc(F)c(Cl)c3)[nH]c2=O)cc1	inconclusive: 79.4 µM [inhibitor, partial curve]
Cc1c(C(=O)NNc2cc(=O)n(C)c(=O)n2C)cccc1[N+](=O)[O-]	inactive
COc1ccc(-c2nnc(SCC(=O)NCc3ccccc3)nc2-c2ccc(OC)c(OC)c2)cc1OC	inactive
Cc1nc2ccccc2c(=O)n1/N=C/c1ccc2ccccc2c1O	inconclusive: 28.2 µM [inhibitor, partial curve]
Cc1cc(C)n(CC(O)Cn2c3ccc(Cl)cc3c3cc(Cl)ccc32)c(=O)n1 (stereo not drawn)	inactive
CCOC(=O)C1(Cc2ccccc2)CCN(Cc2cccn2-c2cccnc2)CC1	inconclusive: 63.1 µM [inhibitor, partial curve]
COC(=O)c1ccc([C@H]2Nc3ccc(S(=O)(=O)Nc4ccc(C)cc4)cc3[C@H]3C=CC[C@H]32)cc1	inconclusive: 31.6 µM [inhibitor, partial curve, poor fit]
FC(F)(F)c1ccc(Cl)c(-n2c(-c3ccco3)n[nH]c2=S)c1	inconclusive: 56.2 µM [inhibitor, partial curve]
Cc1c(NC(C)C)c(=O)n(-c2ccccc2)n1C	inconclusive: 100 µM [inhibitor, single point]
COc1ccc2ccccc2c1C1CC(=O)N2CN(C3CCCCC3)CSC2=C1C#N (stereo not drawn)	inconclusive: 79.4 µM [inhibitor, partial curve]
Oc1ccc(N2Cc3ccccc3C2)cc1	inconclusive: 56.2 µM [inhibitor, partial curve]
O=C(CCN1C(=O)/C(=C/c2ccccc2F)SC1=S)NCCCn1ccnc1	inconclusive: 56.2 µM [inhibitor, partial curve]
CCN(CC)c1ccc(/C=N/NC(=O)c2c(-c3ccccc3)noc2C)cc1	inconclusive: 31.6 µM [inhibitor, partial curve]
CN(C)c1ccc(N/C(=N\S(=O)(=O)c2cccs2)c2ccccc2)cc1	active: 44.7 µM
O=C(NCc1ccco1)c1c[nH]c2ccc(S(=O)(=O)Nc3ccc(F)cc3F)cc2c1=O	inconclusive: 35.5 µM [inhibitor, partial curve]
CCCCNc1nc2c(S(=O)(=O)c3ccc(Cl)cc3)nnn2c2ccsc12	inactive
COc1ccc(N2C(=O)[C@@H]3[C@H](C2=O)[C@H]2c4ccccc4C=CN2[C@@H]3C(=O)Nc2ccccc2)cc1	inconclusive: 56.2 µM [inhibitor, partial curve]
CC1(C)CC(=O)C(C=NCCO)=C(O)C1	inconclusive: 31.6 µM [inhibitor, single point]
CN(C)C=NC(=O)c1cc(C(=O)c2ccc(Cl)cc2)c[nH]1	inactive
Cc1ccc2cccc(S(=O)(=O)Nc3ccc4c(c3)OCO4)c2n1	inconclusive: 50.1 µM [inhibitor, partial curve]
O=C1NC(c2ccc(-c3ccccc3[N+](=O)[O-])o2)C(C(=O)c2ccc(Cl)cc2)C(O)(C(F)(F)F)N1 (stereo not drawn)	inconclusive: 70.8 µM [inhibitor, single point]
COc1ccc(/C=C2/SC(=O)N(CC(O)Cn3c4ccccc4c4ccccc43)C2=O)cc1 (stereo not drawn)	active: 79.4 µM

— PubChem BioAssay AID504339 (National Center for Advancing Translational Sciences (NCATS), 2011)
